Measured values reported in article PMC4336329 (PLoS ONE, 2015).
Out of some 310,000 compounds screened, about 2,200 (0.71%) showed an effect of 50% or more. The effect is printed as a negative number. Some of the results follow.

Molecular target: human ether-à-go-go-related gene (hERG) potassium channel (human, UniProt Q12809)
Assay: primary screen, population patch clamp on CHO cells stably expressing hERG

Chain of human ether-à-go-go-related gene (hERG) potassium channel (Q12809 whole entry, looked up): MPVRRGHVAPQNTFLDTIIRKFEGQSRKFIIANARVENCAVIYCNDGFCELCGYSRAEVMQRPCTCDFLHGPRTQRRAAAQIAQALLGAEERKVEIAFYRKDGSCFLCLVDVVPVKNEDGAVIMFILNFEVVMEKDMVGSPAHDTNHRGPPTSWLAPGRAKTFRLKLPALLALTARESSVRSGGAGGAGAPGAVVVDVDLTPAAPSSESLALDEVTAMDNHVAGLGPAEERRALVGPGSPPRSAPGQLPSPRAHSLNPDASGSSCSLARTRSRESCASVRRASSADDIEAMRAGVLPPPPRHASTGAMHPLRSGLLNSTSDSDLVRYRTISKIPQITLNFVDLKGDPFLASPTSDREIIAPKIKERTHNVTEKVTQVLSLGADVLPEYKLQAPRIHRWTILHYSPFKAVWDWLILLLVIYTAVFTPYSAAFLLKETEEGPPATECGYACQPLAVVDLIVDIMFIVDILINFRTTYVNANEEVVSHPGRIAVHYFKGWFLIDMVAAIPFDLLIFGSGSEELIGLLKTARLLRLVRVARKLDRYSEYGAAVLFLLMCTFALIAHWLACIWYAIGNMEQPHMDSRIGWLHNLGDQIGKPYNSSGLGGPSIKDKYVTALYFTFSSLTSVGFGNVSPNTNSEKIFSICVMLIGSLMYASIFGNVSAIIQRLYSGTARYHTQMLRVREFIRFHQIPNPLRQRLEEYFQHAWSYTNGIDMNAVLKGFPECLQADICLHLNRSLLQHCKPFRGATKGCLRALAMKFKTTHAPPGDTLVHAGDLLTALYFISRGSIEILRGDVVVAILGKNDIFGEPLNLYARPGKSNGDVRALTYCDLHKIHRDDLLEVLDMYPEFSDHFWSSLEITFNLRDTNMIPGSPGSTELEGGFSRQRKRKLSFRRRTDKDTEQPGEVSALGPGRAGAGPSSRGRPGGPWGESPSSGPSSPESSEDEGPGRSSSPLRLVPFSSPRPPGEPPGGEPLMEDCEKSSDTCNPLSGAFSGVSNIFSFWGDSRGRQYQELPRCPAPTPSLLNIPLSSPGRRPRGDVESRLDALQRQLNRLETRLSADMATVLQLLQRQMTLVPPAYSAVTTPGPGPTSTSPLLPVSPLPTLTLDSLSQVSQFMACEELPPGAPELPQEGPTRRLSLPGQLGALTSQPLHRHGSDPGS

Going from `CCNC(=O)CCSc1nc(C)cc(C)n1` to `CCc1cc2ccc(C)c(C)c2nc1SCC(=O)Nc1cc(C)on1`, the “hERG current change (%, negative = inhibition) at 1uM” value rises from 1.33% to 13.4%.

Going from `Nc1nnc(CSCc2ccccc2Cl)s1` to `CN(Cc1cn(C)nc1-c1ccccc1F)Cc1nccn1C`, the “hERG current change (%, negative = inhibition) at 1uM” value falls from 18.5% to 17.8%.

Compared with `Cc1ccc(F)cc1NC(=O)Cc1nn(C)c(=O)c2ccccc12`, `CCn1c(SCC(=O)Nc2ccccc2C)nc2nc3c(cc2c1=O)COC(C)(C)C3` is lower in “hERG current change (%, negative = inhibition) at 1uM” value: 10.5% for the first, 8.88% for the second.

Going from `O=C(O)c1[nH]c2ccccc2c1NS(=O)(=O)c1ccc(F)cc1` to `Nc1c(C(=O)c2ccc(F)cc2)oc2ccccc12`, the “hERG current change (%, negative = inhibition) at 1uM” value falls from 13.2% to 13%.

Going from `Cc1cccc([C@@H]2[C@@H]3C(=O)N(Cc4ccccc4)C(=O)[C@@H]3[C@]3(CC(C)C)C(=O)N(c4cccc(Cl)c4)C(=O)N23)c1` to `O=c1nc2cccc3c2=c(/c1=C(\O)c1ccccc1)c1ccccc1c3=O`, the “hERG current change (%, negative = inhibition) at 1uM” value rises from 9.24% to 17.5%.

Going from `Cc1ccc(C(=O)NCCc2nnc3ccc(SCC(=O)Nc4ccc(C)cc4C)nn23)cc1` to `Cc1cc(C)n(-c2ccc(C(=O)NCc3ccc4c(c3)OCO4)cc2)n1`, the “hERG current change (%, negative = inhibition) at 1uM” value rises from 1.09% to 6.48%.

Compared with `O=C(NCCNC1CCN(Cc2ccccc2)CC1)c1cccs1`, `O=C(CCCc1ccccc1)Nc1ccnn1C1CCN(Cc2ccccc2)CC1` is lower in “hERG current change (%, negative = inhibition) at 1uM” value: 10.7% for the first, -18.8% for the second.

Going from `O=C(Nc1cccc(N=Cc2cc(Br)cc(Br)c2O)c1)c1ccco1` to `O=C(O)/C=C/c1cccc(OCc2ccccc2)c1`, the “hERG current change (%, negative = inhibition) at 1uM” value falls from 13% to 10.4%.

First: Nc1ccc(C(=O)O)c(O)c1.Nc1ccc(C(=O)O)c(O)c1
Second: O=C(O)c1cc(=O)c2ccccc2o1
The “hERG current change (%, negative = inhibition) at 1uM” value of the first is lower: 4.97% for the first, 16.1% for the second.

Compared with `CCn1cc(C(=O)O)c(=O)c2ccc(C)nc21`, `Cc1ccc(C(=O)Nc2ccc3nc(C)sc3c2)s1` is lower in “hERG current change (%, negative = inhibition) at 1uM” value: 16.8% for the first, 14.8% for the second.

Compared with `CCn1ncc(NC(=S)NCCc2ccc(OC)c(OC)c2)c1C(N)=O`, `COc1ccc(-c2csc(NC(=S)NC(=O)/C=C/c3ccco3)n2)cc1OC` is lower in “hERG current change (%, negative = inhibition) at 1uM” value: 16.4% for the first, 3.48% for the second.

Going from `COc1ccc(/C=C/c2nc(S(=O)(=O)c3ccccc3)c(N(C)C)o2)cc1OC` to `COc1ccc(-c2cc(-c3nnc(COC(=O)CC4CC5CCC4C5)o3)c3ccccc3n2)cc1OC` (stereo not drawn), the “hERG current change (%, negative = inhibition) at 1uM” value falls from 14.1% to 7.43%.

Going from `CCCC(=O)Nc1ccc(Br)cn1` to `O=C(COc1ccc(Br)cc1Cl)Nn1cnnc1`, the “hERG current change (%, negative = inhibition) at 1uM” value falls from 15.5% to 12.7%.

First: Cc1cc2ccccc2n1CCNC(=O)C1CCCCC1
Second: O=C(NCCOc1ccc(Cl)cc1)C1CCCCC1
The “hERG current change (%, negative = inhibition) at 1uM” value of the first is lower: 3.99% for the first, 10.9% for the second.

Going from `Cc1ccnc(NC(=S)NC(=O)c2cncc(Br)c2)c1` to `Cc1cc2ccccn2c1C(=S)NC(=O)c1ccccc1`, the “hERG current change (%, negative = inhibition) at 1uM” value falls from 9.65% to 5.71%.

Compared with `Cc1ncc(CSc2nccc(=O)[nH]2)c(CO)c1O`, `Cc1ccc(NC(=O)CSc2n[nH]c(-c3ccccn3)n2)cc1` is lower in “hERG current change (%, negative = inhibition) at 1uM” value: 5.69% for the first, -1.35% for the second.

First: Cc1ccc(P(C)(=O)c2ccc(C)cc2)cc1
Second: Cc1ccc(S(=O)(=O)NC(=O)NC(C)Cc2ccccc2)cc1 (stereo not drawn)
The “hERG current change (%, negative = inhibition) at 1uM” value of the first is lower: 16.8% for the first, 21.2% for the second.

Compared with `C=CCOC(=O)CCCCCCCC`, `CCCCCOC(=O)c1ccccc1C(=O)O` is higher in “hERG current change (%, negative = inhibition) at 1uM” value: 10.5% for the first, 10.8% for the second.

Going from `Cc1noc(C)c1C(=O)N1CCCC(Nc2ccc(C(C)C)cc2)C1` (stereo not drawn) to `CC(C)c1ccc(NC2CCCN(C(=O)c3cccnc3)C2)cc1` (stereo not drawn), the “hERG current change (%, negative = inhibition) at 1uM” value falls from 26.5% to 5.91%.

Going from `CCc1cccc(NC(=O)c2snc3c(=O)[nH]cnc23)c1` to `Cc1ccc(-n2c(SCC(=O)Nc3nccs3)nc3c(c2=O)SCC3)cc1`, the “hERG current change (%, negative = inhibition) at 1uM” value falls from 14.7% to 11%.

First: Cc1cc(C)c2oc(C(=O)Nc3ccc(S(=O)(=O)Nc4nccs4)cc3)cc(=O)c2c1
Second: CCCc1nn(C)c2c(=O)[nH]c(-c3cc(S(=O)(=O)Nc4ccc(NC(C)=O)cc4)ccc3OCC)nc12
The “hERG current change (%, negative = inhibition) at 1uM” value of the first is higher: 12.2% for the first, 0.706% for the second.

First: CCOc1ccc(Nc2ncnc(N)n2)cc1
Second: O=[N+]([O-])c1cnc(Nc2ccccc2)nc1Nc1ccccc1
The “hERG current change (%, negative = inhibition) at 1uM” value of the first is lower: 6.01% for the first, 11.6% for the second.

Compared with `COCCCC1CCN(C(=O)CCc2nnc(CCCCc3ccccc3)o2)CC1`, `CCCCNC(=O)CCN1N=C(c2ccccc2)CCC1=O` is higher in “hERG current change (%, negative = inhibition) at 1uM” value: 3.1% for the first, 5.08% for the second.

First: CCc1nc(N2CCOCC2)c(C#N)c2c1CCCC2
Second: Cn1c(=O)[nH]c(=O)c2c1nc(N1CCOCC1)n2CC(O)COc1ccccc1 (stereo not drawn)
The “hERG current change (%, negative = inhibition) at 1uM” value of the first is higher: 4.28% for the first, -0.376% for the second.

Going from `CCOC(=O)c1ccc(NC(=O)CSc2nnc(C3CC3)n2CC)cc1` to `CCOC(=O)c1ccc(NC(=O)COc2cc3oc(=O)c(CC(C)O)c(C)c3cc2Cl)cc1` (stereo not drawn), the “hERG current change (%, negative = inhibition) at 1uM” value rises from 9.08% to 14.5%.

Going from `COc1ccc(N2CC(C(=O)NCCN3C(=O)S/C(=C\c4cccnc4)C3=O)CC2=O)c(OC)c1` (stereo not drawn) to `COc1ccc(OC)c(-c2csc(NC(=O)CN3C(=O)C4CCCCC4C3=O)n2)c1` (stereo not drawn), the “hERG current change (%, negative = inhibition) at 1uM” value rises from 5.51% to 11.6%.

Going from `CS(=O)(=O)c1ccc(CNC(=O)C2(C(F)(F)F)CC(CCCO)CCCO2)cc1` (stereo not drawn) to `O=C(NCCN1CCOCC1)C1CCC(CNS(=O)(=O)c2ccc(Cl)cc2)CC1` (stereo not drawn), the “hERG current change (%, negative = inhibition) at 1uM” value rises from 5.06% to 10.2%.

Going from `O=C(C1CC(c2ccc(F)cc2)=NO1)N1CCC2(CC1)OCCO2` (stereo not drawn) to `Fc1cccc(NC(=S)NCC(c2cccnc2)N2CCOCC2)c1` (stereo not drawn), the “hERG current change (%, negative = inhibition) at 1uM” value rises from -0.18% to 5.02%.

Compared with `CN(C)S(=O)(=O)N(CC(=O)Nc1ccccc1F)c1ccccc1`, `COC(=O)C(Cc1ccccc1)NS(=O)(=O)c1ccccc1Br` (stereo not drawn) is higher in “hERG current change (%, negative = inhibition) at 1uM” value: 3.07% for the first, 7.84% for the second.

Compared with `CCCNc1nc(OC)nc(N2CC3CC(C2)c2cccc(=O)n2C3)n1` (stereo not drawn), `COc1ccccc1NC(=O)C1CCN(c2ncccn2)CC1` is lower in “hERG current change (%, negative = inhibition) at 1uM” value: 7.46% for the first, 3.1% for the second.

First: COC(=O)c1[nH]c2cccc(C)c2c1NC(=O)CN1CCN(C(=O)c2ccco2)CC1
Second: COc1ccc(C(=O)Nc2ccccc2C(=O)N2CCN(c3ccccc3)CC2)cc1
The “hERG current change (%, negative = inhibition) at 1uM” value of the first is lower: 4.59% for the first, 13.7% for the second.

Compared with `Cc1c(Cl)cccc1NC(=O)Cn1c(CCC(=O)O)ccc1-c1ccccc1`, `c1ccc(C2=Nc3cccc4cccc(c34)N2)cc1` is higher in “hERG current change (%, negative = inhibition) at 1uM” value: 15.7% for the first, 16.7% for the second.

First: COc1ccc(OC)c(NC(=O)NNC(=O)COc2ccc(F)cc2F)c1
Second: COc1ccc(OC)c(CCNC(=O)Cc2ccc(NC3=NC4CS(=O)(=O)CC4S3)cc2)c1 (stereo not drawn)
The “hERG current change (%, negative = inhibition) at 1uM” value of the first is higher: 52.6% for the first, 8.86% for the second.

First: Nc1cc2c(cc1C(=O)c1ccccc1)OCCO2
Second: Cc1cc(=O)c2cc(C(=O)c3ccccc3)ccc2[nH]1
The “hERG current change (%, negative = inhibition) at 1uM” value of the first is lower: -1.86% for the first, 6.79% for the second.

First: O=C(COC(=O)Cc1ccc(S(=O)(=O)N2CCOCC2)s1)Nc1ccc([N+](=O)[O-])cc1
Second: COc1cc2c(cc1OC)CN(CC(=O)Nc1ccc(S(=O)(=O)N3CCCC3)cc1)CC2
The “hERG current change (%, negative = inhibition) at 1uM” value of the first is lower: 4.97% for the first, 11% for the second.

Going from `O=C(CSc1nnnn1-c1ccccc1)N1CCNC1=O` to `O=C(C1CCC1)N(CCc1ccccc1)Cc1nc2ccccc2c(=O)[nH]1`, the “hERG current change (%, negative = inhibition) at 1uM” value rises from 0.938% to 9.63%.

Going from `CCN(CC(=O)Nc1ccc(NC(C)=O)cc1)C(=O)C(c1ccccc1)c1ccccc1` to `CCOc1cc(C(C(=O)NCC2CCCO2)N(C(=O)Cn2nnc3ccccc32)c2ccc(NC(C)=O)cc2)ccc1O` (stereo not drawn), the “hERG current change (%, negative = inhibition) at 1uM” value rises from 6.64% to 13.2%.

Compared with `O=C(NCc1ccc2[nH]c3c(c2c1)CCCC3)c1ccc(S(=O)(=O)N2CCCC2)cc1`, `Fc1ccc2[nH]c3c(c2c1)CN(C(=S)NCc1ccccc1)CC3` is lower in “hERG current change (%, negative = inhibition) at 1uM” value: 12% for the first, 11.5% for the second.

Going from `O=C(Nc1cc(-c2nn(CC(=O)N3CCCCC3)c(=O)c3ccccc23)ccc1N1CCOCC1)c1ccc(Cl)cc1` to `Cc1sc2ncnc(N3CCC(C(=O)N(C)CC(=O)Nc4ccccc4Cl)CC3)c2c1C`, the “hERG current change (%, negative = inhibition) at 1uM” value falls from 0.79% to -30%.

Compared with `COC(=O)C(=N/Nc1ccccc1C(=O)OC)/C(C)=N/O`, `Cc1ccccc1C(=O)NC(=S)NC1CCS(=O)(=O)C1` (stereo not drawn) is lower in “hERG current change (%, negative = inhibition) at 1uM” value: 29.4% for the first, 5.32% for the second.

First: CCOC(=O)/C=c1\sc2n(c1=O)CCN=2
Second: CCN1CCN(CC(=O)Nc2ccc(Cl)c(S(=O)(=O)N(C)C)c2)CC1
The “hERG current change (%, negative = inhibition) at 1uM” value of the first is higher: 12.3% for the first, 7.32% for the second.

Compared with `COCCCNc1nnc(Cc2ccc(Cl)cc2)c(=O)[nH]1`, `Cc1cc(C)n(CCCNC(=O)C(C)(C)Oc2ccc(Cl)cc2)n1` is lower in “hERG current change (%, negative = inhibition) at 1uM” value: 13.3% for the first, 11.5% for the second.

Going from `COCCCNC(=O)c1c(F)c(F)c(F)c(F)c1F` to `Fc1ccc2cnc(-c3ccccc3)c(-c3ccc(C(F)(F)F)cc3)c2c1`, the “hERG current change (%, negative = inhibition) at 1uM” value rises from 9.89% to 11.5%.

First: CCC(C)c1ccc(OCC(=O)NNC(=O)C2CCCCC2)cc1 (stereo not drawn)
Second: CC(C)CN1CCN(Cc2cccc3cccnc23)CC1CCO (stereo not drawn)
The “hERG current change (%, negative = inhibition) at 1uM” value of the first is higher: 9.76% for the first, 3.22% for the second.

Going from `Cc1ccc(S(=O)(=O)/C(C#N)=C/c2c[nH]c3ccccc23)cc1` to `Cc1cc2ncc(S(=O)(=O)C(C)(C)C)c(N)n2n1`, the “hERG current change (%, negative = inhibition) at 1uM” value rises from 3.4% to 11.3%.
